# In the BET-seq Pho4 binding data (Le et al. 2018):
# Some of the results follow. Values were computed here from the reads of four pooled replicates and scatter widely.
# Target: T1, Pho4 (S. cerevisiae) (UniProt P07270)
# T1 sequence: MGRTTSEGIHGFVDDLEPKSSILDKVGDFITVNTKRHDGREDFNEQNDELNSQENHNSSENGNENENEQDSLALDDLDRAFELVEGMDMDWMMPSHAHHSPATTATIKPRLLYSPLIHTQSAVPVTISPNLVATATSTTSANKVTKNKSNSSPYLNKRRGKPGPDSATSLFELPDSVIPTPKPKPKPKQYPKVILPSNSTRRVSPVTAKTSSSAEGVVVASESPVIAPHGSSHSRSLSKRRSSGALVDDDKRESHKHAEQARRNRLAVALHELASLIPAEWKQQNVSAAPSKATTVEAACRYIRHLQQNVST
# Experiment: relative binding free energy (BET-seq); higher = weaker binding
# Details: reference: library average
row,Sequence,relative binding free energy [kcal/mol]
1,GTGGTCACGTGGTAAC,0.15
2,TGGGCCACGTGTGGTC,-0.08
3,GGAGGCACGTGGTGAT,-0.1
4,GTGCTCACGTGCGGTT,0.14
5,TTGGTCACGTGTATCA,0.15
6,ATCGGCACGTGTGGTC,-0.07
7,GTGGTCACGTGTCAGT,0.14
8,CAATTCACGTGAAGGT,0.4
9,GGGGCCACGTGATGGT,0.16
10,CGGGGCACGTGATGTT,0.07
11,AGTAGCACGTGAACGG,0.2
12,TATTGCACGTGTGTTG,-0.06
13,TTTGGCACGTGAGCAG,0.01
14,TGGATCACGTGCATGT,0.25
15,ATGTTCACGTGCGTGC,0.12
16,GATTGCACGTGTAGTG,0.05
17,TTTATCACGTGCTAGG,0.07
18,AGCTACACGTGTTTTG,0.07
19,AGGGGCACGTGTGATT,0.06
20,TTGAACACGTGGGAGA,-0.16
21,TATGTCACGTGTCGTT,0.19
22,TATGGCACGTGGCCTT,-0.14
23,TCGTACACGTGTGGGG,-0.08
24,GGGATCACGTGGAGAG,0.28
25,TGTCACACGTGTATGA,0.17
26,TATTACACGTGTTGGG,0.19

row,Sequence,relative binding free energy [kcal/mol]
1,CGTACCACGTGGTTGG,-0.14
2,GTGGGCACGTGAACGT,0.17
3,CTTGGCACGTGCTGGA,-0.21
4,ATATGCACGTGTAGGC,-0.11
5,CAGGACACGTGGTGTT,-0.11
6,TTAAGCACGTGTTTTT,0.02
7,GATTTCACGTGAGGAG,0.47
8,GGATTCACGTGCGGGC,0.29
9,TGGGACACGTGAATAG,0.3
10,AGGGCCACGTGAGGCG,-0.02
11,TGAGTCACGTGTTAAC,0.15
12,TGTGACACGTGCAAGG,-0.14
13,ATCGGCACGTGTTGTG,-0.06
14,TTGTACACGTGGGCAT,-0.07
15,TCCGGCACGTGGGGAG,-0.29
16,ATAGGCACGTGGTGGC,-0.22
17,TGAGTCACGTGTACGT,0.08
18,TGTTACACGTGCTTCG,0.04
19,AGACTCACGTGGTGTT,0.03
20,GTTGTCACGTGGAAGC,0.17
21,TGGGGCACGTGGGATA,-0.13
22,AGTTGCACGTGAAGGC,0.24
23,GTACTCACGTGTGGTC,0.27
24,ATTTGCACGTGCATGG,0.03
25,GTGTTCACGTGTAGAG,0.27
26,GGTTCCACGTGTAGAG,0.12

row,Sequence,relative binding free energy [kcal/mol]
1,TACTTCACGTGATGGG,0.29
2,CTTTGCACGTGAGTAT,0.12
3,ATAAACACGTGTTGTG,-0.16
4,TGTGGCACGTGGTCCG,-0.28
5,GCGGGCACGTGGATGT,-0.03
6,GGGAACACGTGAGTTA,0.35
7,GGAGGCACGTGCGGTA,-0.2
8,GTGTGCACGTGCTTTG,-0.09
9,GAGGGCACGTGCGGAT,-0.08
10,GCATGCACGTGTGTAA,0.12
11,TGGGGCACGTGGATTA,-0.16
12,ATAGGCACGTGGTTTA,-0.16
13,ATTCGCACGTGAGGGA,0.23
14,TAGTGCACGTGAGTGC,0.12
15,CTGAGCACGTGTGGCG,-0.13
16,TGATACACGTGTCGGG,0.05
17,GTGATCACGTGTCGGA,0.16
18,TAGGCCACGTGGTTAG,-0.13
19,TTCTGCACGTGCGTTG,0.05
20,CTGATCACGTGGGAGG,0.07
21,GCGTGCACGTGGACGG,0.06
22,CTTATCACGTGAATTT,0.47
23,GTCGGCACGTGGATTG,0.04
24,GTGGCCACGTGGGCCG,-0.11
25,GATTTCACGTGTGAAG,0.5
26,AGCAACACGTGGGGAG,0.09

row,Sequence,relative binding free energy [kcal/mol]
1,TAAGGCACGTGGAGCG,-0.02
2,ATCGTCACGTGGGAGT,-0.05
3,CGGATCACGTGGAAGG,0.27
4,ACTGGCACGTGGTGTT,-0.2
5,TTCTGCACGTGAGATA,0.38
6,GAGTGCACGTGGCGCG,-0.01
7,GTGGACACGTGGGGGC,-0.04
8,TTAGACACGTGGGTAT,-0.03
9,TTTTTCACGTGAAGAG,0.49
10,GTTTTCACGTGTACTG,0.32
11,CGTGACACGTGTCTGT,-0.05
12,GTTGGCACGTGTAGGA,0.09
13,ATTTGCACGTGATCTT,-0.07
14,GAAATCACGTGGAGGG,0.15
15,GGTAGCACGTGTCTTA,0
16,GGGTACACGTGGGCCG,-0.08
17,AGTATCACGTGGAGGT,0.09
18,TGTGCCACGTGAGTTA,0.14
19,GTTAGCACGTGGTAAA,-0.12
20,TGTGACACGTGCTATG,-0.07
21,GGCAACACGTGGGTTG,-0.13
22,AAGTGCACGTGATTGG,-0.02
23,GGCGCCACGTGAGTGG,0.08
24,ATTGGCACGTGATAAA,0.01
25,GGGGGCACGTGACACG,-0.1
26,ATCGGCACGTGATGTA,0.08

row,Sequence,relative binding free energy [kcal/mol]
1,TATAACACGTGTGGAT,0.12
2,GTTATCACGTGGCCGT,0.26
3,GAGTTCACGTGTCGTG,0.31
4,GGTGGCACGTGCATTG,-0.07
5,TGTGGCACGTGTATGG,0.01
6,CGTTACACGTGGGTCT,0.05
7,GGGAGCACGTGAAGTT,0.24
8,GTTATCACGTGAGCGG,0.35
9,TATGTCACGTGGTTGG,0.07
10,ATCGTCACGTGTCTGG,0.08
11,AGCTGCACGTGGAGGT,-0.06
12,TCAGGCACGTGCGGTT,-0.17
13,AGGTGCACGTGAGATG,0.23
14,CTAGTCACGTGGGCTT,0.03
15,TATCGCACGTGTGGTT,0.01
16,GTTCGCACGTGTGTTC,0.07
17,CTGTACACGTGCGGTT,-0.01
18,GTGTTCACGTGCTAGT,0.16
19,TTCATCACGTGAGGTA,0.39
20,TGGGACACGTGGGGCC,0.03
21,AATTACACGTGTGCTG,0.06
22,TGAGGCACGTGTATGC,-0.09
23,ATTTACACGTGATGGG,0.28
24,GCGTGCACGTGTTGTT,0.14
25,CTGATCACGTGTAGGT,0.11
26,TAGATCACGTGAAGGT,0.34

row,Sequence,relative binding free energy [kcal/mol]
1,TGTGTCACGTGTTCTC,0
2,TTTAACACGTGCGTGT,-0.08
3,GTTGACACGTGGTGCT,-0.08
4,GATCACACGTGTGTAT,0.18
5,GTATACACGTGGCGGT,0.09
6,AGTTGCACGTGGGACT,-0.1
7,TGATACACGTGGTTAA,-0.02
8,AGTTGCACGTGGCTCT,-0.06
9,AGTGCCACGTGTGGTC,-0.14
10,CGGTTCACGTGAGGCT,0.25
11,TTGATCACGTGGGCCG,0.01
12,GTTGGCACGTGAGAGG,0.13
13,GGGAACACGTGATAGT,0.21
14,CGGTTCACGTGGGAAT,0.19
15,GGTTTCACGTGTATAG,0.22
16,GTGTACACGTGATAAG,0.25
17,CTTGACACGTGTGTGA,-0.06
18,GATATCACGTGATGAG,0.32
19,TGGGCCACGTGAGGCT,0.08
20,GTCGTCACGTGAATTT,0.42
21,AATTTCACGTGACTGT,0.46
22,AGGTGCACGTGTATGA,0
23,AACTGCACGTGGTTAG,-0.09
24,TTTAGCACGTGACGTG,0.03
25,AAATTCACGTGTTAAG,0.19
26,ATGGTCACGTGCCTGG,0.05

row,Sequence,relative binding free energy [kcal/mol]
1,TATAGCACGTGGGCTG,-0.21
2,AGGTACACGTGGGCGG,-0.02
3,TGGGGCACGTGAAGAC,0.13
4,AGTTACACGTGTTGCA,0.09
5,ATGGACACGTGGCGAG,-0.07
6,GGCGACACGTGTGTGA,0.29
7,TTATTCACGTGTTATC,0.29
8,CTGTGCACGTGTTGCG,-0.03
9,TTTTGCACGTGGTCGA,-0.07
10,CTAAGCACGTGGTTGT,-0.29
11,TGCAACACGTGGATTT,0.29
12,ACTGGCACGTGGGCGT,-0.21
13,GGGGACACGTGAGGGC,0.32
14,CGTTACACGTGGTGAG,-0.02
15,GTTCGCACGTGTGTGG,0.05
16,CTAAACACGTGTGGTT,-0.04
17,TGAGGCACGTGAGAAG,-0.03
18,CGTGGCACGTGAATGA,0.14
19,TTGTTCACGTGGGAAA,0.22
20,TATCGCACGTGGGCGT,-0.22
21,TTTGGCACGTGTAAGC,0.02
22,TGTTGCACGTGGTTGC,-0.07
23,CATAACACGTGGGAGT,-0.02
24,GTGGCCACGTGAAATG,0.27
25,AGCTTCACGTGGTGTA,0.19
26,ATAAACACGTGCGGTA,0.2

row,Sequence,relative binding free energy [kcal/mol]
1,TGGATCACGTGGATTG,0.15
2,TCAGTCACGTGATGAT,0.4
3,GGTGGCACGTGGACAG,-0.06
4,TTTGTCACGTGTAAAC,0.31
5,TTACGCACGTGTGGGA,-0.06
6,TATTTCACGTGGGGTA,0.15
7,TGGTACACGTGTAGAA,0.13
8,CGTAGCACGTGGTTTT,-0.04
9,TCATTCACGTGATGTG,0.37
10,GTTGGCACGTGACTGT,0.08
11,GGAGACACGTGGTGTC,0.07
12,GTAATCACGTGGGGTC,-0.04
13,TGTTGCACGTGAGGTC,0.27
14,TTGCTCACGTGATAGG,0.41
15,GTGTTCACGTGTACTG,0.26
16,CACATCACGTGTGGGT,0.12
17,TGTGGCACGTGAATCA,0.24
18,GTTTGCACGTGTTACG,0.09
19,CTTTTCACGTGCGTTT,0.23
20,GTGTACACGTGTAAGG,0.18
21,TTTGGCACGTGCCTTG,-0.07
22,ATGGGCACGTGTTAAA,-0.17
23,GAGTTCACGTGCAAGG,0.36
24,GGGGACACGTGTGAGA,0.21
25,GTTTACACGTGAGTAT,0.42
26,CTGCTCACGTGGGTTG,0.05

row,Sequence,relative binding free energy [kcal/mol]
1,GGGTCCACGTGGGATG,-0.06
2,AGGGACACGTGAATGG,0.28
3,GGGGCCACGTGGGTGT,-0.2
4,GCTATCACGTGTGGAG,0.33
5,GGTTACACGTGGGTCG,-0.06
6,TGGGACACGTGGAGTT,0.03
7,CGGAGCACGTGGAGTT,-0.19
8,TATAGCACGTGTTGAA,0.01
9,TAAGTCACGTGGTGAT,0.07
10,TGTCGCACGTGCTATT,-0.16
11,ATGCTCACGTGGGGGG,0
12,GGGCACACGTGAATGG,0.26
13,GGAATCACGTGTTAGG,0.06
14,TAGTTCACGTGGGTAC,0.09
15,ATTACCACGTGGTAGG,-0.08
16,TGGATCACGTGAGATT,0.5
17,GTTGTCACGTGTTAAA,0.14
18,GGTTTCACGTGTGAAG,0.27
19,TACATCACGTGGGATG,0.03
20,GTTATCACGTGAGAGT,0.35
21,TAACTCACGTGAAGTT,0.52
22,GGTGGCACGTGAGGTT,0.22
